# This is one part of the list.
# B1: Epa1-NP-mutant-Y228W (Candida glabrata), Q6VBJ0 (protein)
# chain: MILNPALFLNKCVCIYTTLILLLLTNGGYATSSNDISLASKDPTTFPLGCSPDITTPKKGLSMELYSYDFRKKGSYPCWDAAYLDPNYPRTGYKSHRLLAKVDGVTGNINFYYHATKGCTPQLGHLPASYNYPKPLTMTNFTMLLYGYFRPKVTGFHTFTISADDLLFVNFGAGNAFDCCRRDSSADHFGNYQAYAIWGSKTAKDELTVHLDAGVYYPIRLFYNNREWDGALSFTFKTESNENTVSDFSEYFFSLDDTEEGCPGLISYDSSCASVKTSKIIGIDYHTETPNENLVPITKTIYHLGIPCTGTTTTPLCGSGFYDPLANKCVTINTSSTSSVTKTTSHTTSKEVSFHSSISSQKTLIPKSIPSPYGPIKSQSIPTEMETSSEISSSEYAFSDVISTPSHSPYTKKHSSLNSSSYTSTVIHSLTSYSISQGIFSTSLSEQNITSKSSTDKFSTATSMSNNITQSSIIISQFSTNNENYTTTSMHTSSDKISTETLNNSISTTTSILFSNSSTILKNNTTIISSDKDTHYHPVNPTIVCSTNKTEIICASITQPSISNSNNHWSSSVLKFNSTTVRSTLPSSAGSNETSINVPFSSSTESNTSTSSTSTSNSKMVRSTLPSSAGSNETSISVPFSSSTESNTSTSSTSTSNSKMVRSTLPSSAGSNETSINVPFSSSTESNTSTSSTSTSNSKTVRSTPFSSAGIIMTSLSQRNNKSASSYASSNSKCYNTADSCRKVHSTPSYLLTSSYTSEGVDYDCSLVSTKLKINDTNCVNNKHTTKSCLKTSVTTTIPTLEIKTARKSSSNTIGLHSYPTSSPNKSISSAPIIGYISSFKTIKTASPSYQTSDLTTITTITSLNNPGSTAVENTHESNDKSRKTSSNDISSKHSVIKETKDAVESSNKSHQTNTLKCSSIIIASSSHNSYESLGGTTLTLTLSKVYSPQNNDTLPFLEISEVNPSRTVLPESSKMMQYLTSTEERNKTARNTIATNIVSISTFHFEGEGNAIRMGYTQLLLMLIGIIVMNIGT
# How the values were obtained:
# Assay in all cases: glycan array binding signal (z-score within array); higher = stronger binding
# Conditions in all cases: glycan notation: IUPAC condensed, linker removed; mutation: Y228W
# Gal(a1-3)Gal(b1-4)GlcNAc = biological target: Gal(a1-3)Gal(b1-4)GlcNAc
# Procedure, shortened: (§1)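 The binding signal is a Z-score computed within each array and averaged over linkers. Arrays of the same protein sequence at different concentrations or buffers were also averaged together. Data originate from 3228 arrays in the Consortium for Functional Glycomics database, kept only where the protein sequence was available.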
# [1] = biological target: Gal(a1-3)Gal(b1-4)GlcNAc(b1-2)Man
# Procedure, shortened: as §1
# [2] = biological target: Gal(a1-3)Gal(b1-4)GlcNAc(b1-2)Man(a1-3)[Gal(a1-3)Gal(b1-4)GlcNAc(b1-2)Man(a1-6)]Man(b1-4)GlcNAc(b1-4)GlcNAc
# Procedure, shortened: as §1
# [3] = biological target: Gal(a1-3)Gal(b1-4)GlcNAc(b1-3)GalNAc
# Procedure, shortened: as §1
# [4] = biological target: Gal(a1-3)Gal(b1-4)GlcNAc(b1-6)GalNAc
# Procedure, shortened: as §1
# [5] = biological target: Gal(a1-3)Gal(b1-4)[Fuc(a1-3)]GlcNAc
# Procedure, shortened: as §1
# [6] = biological target: Gal(a1-3)Gal(b1-4)[Fuc(a1-3)]GlcNAc(b1-2)Man(a1-3)[Gal(a1-3)Gal(b1-4)[Fuc(a1-3)]GlcNAc(b1-2)Man(a1-6)]Man(b1-4)GlcNAc(b1-4)GlcNAc
# Procedure, shortened: as §1
# Gal(a1-3)GalNAc = biological target: Gal(a1-3)GalNAc
# Procedure, shortened: as §1
# [7] = biological target: Gal(a1-3)[Gal(a1-4)]Gal(b1-4)GlcNAc
# Procedure, shortened: as §1
# [8] = biological target: Gal(a1-4)Gal(b1-3)GlcNAc(b1-2)Man(a1-3)[Gal(a1-4)Gal(b1-3)GlcNAc(b1-2)Man(a1-6)]Man(b1-4)GlcNAc(b1-4)GlcNAc
# Procedure, shortened: as §1
# Gal(a1-4)Gal(b1-4)Glc = biological target: Gal(a1-4)Gal(b1-4)Glc
# Procedure, shortened: as §1
# Gal(a1-4)Gal(b1-4)GlcNAc = biological target: Gal(a1-4)Gal(b1-4)GlcNAc
# Procedure, shortened: as §1
# [9] = biological target: Gal(a1-4)Gal(b1-4)GlcNAc(b1-2)Man(a1-3)[Gal(a1-4)Gal(b1-4)GlcNAc(b1-2)Man(a1-6)]Man(b1-4)GlcNAc(b1-4)GlcNAc
# Procedure, shortened: as §1
# [10] = biological target: Gal(a1-4)Gal(b1-4)GlcNAc(b1-3)Gal(b1-4)Glc
# Procedure, shortened: as §1
# Gal(a1-4)GlcNAc = biological target: Gal(a1-4)GlcNAc
# Procedure, shortened: as §1
# Gal(a1-6)Glc = biological target: Gal(a1-6)Glc
# Procedure, shortened: as §1
# Gal(b1-2)Gal = biological target: Gal(b1-2)Gal
# Procedure, shortened: as §1
# Gal(b1-3)Gal = biological target: Gal(b1-3)Gal
# Procedure, shortened: as §1
# Gal(b1-3)Gal(b1-4)GlcNAc = biological target: Gal(b1-3)Gal(b1-4)GlcNAc
# Procedure, shortened: as §1
# Gal(b1-3)GalNAc = biological target: Gal(b1-3)GalNAc
# Procedure, shortened: as §1
# [11] = biological target: Gal(b1-3)GalNAc(a1-3)[Fuc(a1-2)]Gal(b1-4)Glc
# Procedure, shortened: as §1
# [12] = biological target: Gal(b1-3)GalNAc(a1-3)[Fuc(a1-2)]Gal(b1-4)GlcNAc
# Procedure, shortened: as §1
# Gal(b1-3)GalNAc(b1-3)Gal = biological target: Gal(b1-3)GalNAc(b1-3)Gal
# Procedure, shortened: as §1
# [13] = biological target: Gal(b1-3)GalNAc(b1-3)Gal(a1-4)Gal(b1-4)Glc
# Procedure, shortened: as §1
# [14] = biological target: Gal(b1-3)GalNAc(b1-4)Gal(b1-4)Glc
# Procedure, shortened: as §1
# [15] = biological target: Gal(b1-3)GalNAc(b1-4)[Neu5Ac(a2-3)]Gal(b1-4)Glc
# Procedure, shortened: as §1
# Gal(b1-3)GlcNAc = biological target: Gal(b1-3)GlcNAc
# Procedure, shortened: as §1
# [16] = biological target: Gal(b1-3)GlcNAc(a1-3)Gal(b1-4)GlcNAc
# Procedure, shortened: as §1
# [17] = biological target: Gal(b1-3)GlcNAc(a1-6)Gal(b1-4)GlcNAc
# Procedure, shortened: as §1
# Gal(b1-3)GlcNAc(b1-2)Man = biological target: Gal(b1-3)GlcNAc(b1-2)Man
# Procedure, shortened: as §1
binder,measurement,setting,value
B1,glycan array binding signal (z-score),Gal(a1-3)Gal(b1-4)GlcNAc,-0.293
same,glycan array binding signal (z-score),[1],-0.088
same,glycan array binding signal (z-score),[2],-0.175
same,glycan array binding signal (z-score),[3],-0.339
same,glycan array binding signal (z-score),[4],-0.035
same,glycan array binding signal (z-score),[5],-0.217
same,glycan array binding signal (z-score),[6],0.22
same,glycan array binding signal (z-score),Gal(a1-3)GalNAc,-0.239
same,glycan array binding signal (z-score),[7],-0.336
same,glycan array binding signal (z-score),[8],-0.007
same,glycan array binding signal (z-score),Gal(a1-4)Gal(b1-4)Glc,-0.197
same,glycan array binding signal (z-score),Gal(a1-4)Gal(b1-4)GlcNAc,-0.087
same,glycan array binding signal (z-score),[9],0.133
same,glycan array binding signal (z-score),[10],-0.061
same,glycan array binding signal (z-score),Gal(a1-4)GlcNAc,-0.021
same,glycan array binding signal (z-score),Gal(a1-6)Glc,-0.349
same,glycan array binding signal (z-score),Gal(b1-2)Gal,-0.247
same,glycan array binding signal (z-score),Gal(b1-3)Gal,1.05
same,glycan array binding signal (z-score),Gal(b1-3)Gal(b1-4)GlcNAc,7.29
same,glycan array binding signal (z-score),Gal(b1-3)GalNAc,2.78
same,glycan array binding signal (z-score),[11],-0.009
same,glycan array binding signal (z-score),[12],0.177
same,glycan array binding signal (z-score),Gal(b1-3)GalNAc(b1-3)Gal,2.53
same,glycan array binding signal (z-score),[13],0.564
same,glycan array binding signal (z-score),[14],15
same,glycan array binding signal (z-score),[15],4.99
same,glycan array binding signal (z-score),Gal(b1-3)GlcNAc,-0.24
same,glycan array binding signal (z-score),[16],-0.338
same,glycan array binding signal (z-score),[17],-0.286
same,glycan array binding signal (z-score),Gal(b1-3)GlcNAc(b1-2)Man,-0.27

# Reference: the supplement of paper PMC8728848
